# Results published in PubChem BioAssay AID1460 (National Center for Advancing Translational Sciences (NCATS), 2008).
# Screen size: about 270,000 compounds; about 5,800 (2.1%) were called active. Inconclusive means that the source gave no clear call. Such entries were picked first, then a sample of the others. The call rests on the fitted dose curve; in most records, active means well fitted inhibition curve with a large enough effect; inconclusive means small, poorly fitted or top-dose-only effect; inactive means flat fitted curve, though single readings scatter. Where the call is inconclusive, the potency comes from a doubtful curve fit.
# Biological target: Microtubule-associated protein tau (Homo sapiens) (UniProt P10636)
# Test: qHTS for Inhibitors of Tau Fibril Formation, Thioflavin T Binding; further: nearly all actives have a fitted effect of over 55% in size
# Details: recombinant tau K18 P301L (four-repeat tau fragment), heparin-induced fibrillization, ThT fluorescence; series mostly up to 57.4 µM; activity, negative = inhibition: at the top concentration
# Method in brief: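 Heparin-induced fibrillization of the P301L-mutant K18 repeat-domain fragment of human tau was followed by ThT binding in quantitative high-throughput format.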
# On the % scale 0 is the no-effect control and ±100 the full control effect; potency means the concentration at half of the fitted maximal effect; tags describe the fitted curve by direction and shape.
# Sequence of UniProt P10636 (P10636 whole entry, looked up): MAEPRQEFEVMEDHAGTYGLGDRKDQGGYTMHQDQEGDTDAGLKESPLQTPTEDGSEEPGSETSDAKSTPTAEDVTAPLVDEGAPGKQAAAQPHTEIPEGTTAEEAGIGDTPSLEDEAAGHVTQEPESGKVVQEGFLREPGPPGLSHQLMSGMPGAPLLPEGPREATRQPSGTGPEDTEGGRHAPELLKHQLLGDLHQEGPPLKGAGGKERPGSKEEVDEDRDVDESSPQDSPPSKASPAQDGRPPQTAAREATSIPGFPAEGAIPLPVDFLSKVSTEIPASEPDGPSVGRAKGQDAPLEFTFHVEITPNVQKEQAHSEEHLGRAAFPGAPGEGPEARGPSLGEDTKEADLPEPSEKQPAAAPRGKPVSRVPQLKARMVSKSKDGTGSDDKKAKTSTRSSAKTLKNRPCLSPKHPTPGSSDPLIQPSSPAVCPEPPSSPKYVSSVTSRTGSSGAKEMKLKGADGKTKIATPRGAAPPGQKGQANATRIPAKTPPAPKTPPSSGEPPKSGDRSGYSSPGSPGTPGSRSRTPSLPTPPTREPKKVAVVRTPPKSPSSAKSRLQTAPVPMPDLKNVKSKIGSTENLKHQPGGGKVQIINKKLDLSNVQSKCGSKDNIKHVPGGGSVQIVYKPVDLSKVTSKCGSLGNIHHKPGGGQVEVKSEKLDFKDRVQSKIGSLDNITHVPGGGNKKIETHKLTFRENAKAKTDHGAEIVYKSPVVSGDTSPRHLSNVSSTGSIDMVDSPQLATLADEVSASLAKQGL
SMILES,Potency,"activity, negative = inhibition"
COc1ccc(-c2ccc(CCC(=O)O)n2-c2cc(Cl)ccc2O)cc1,"inconclusive: 25.1 µM [inhibitor, partial curve]",–
O=C(Cn1c(=O)n(Cc2nc(-c3ccccc3)no2)c(=O)c2cc3c(cc21)OCO3)Nc1cccc(C(F)(F)F)c1,"inconclusive: 25.1 µM [activator, partial curve, poor fit]",–
COc1ccc(NCc2nnc(SCC(=O)Nc3cc(C(F)(F)F)ccc3Cl)o2)cc1,"inconclusive: 35.5 µM [inhibitor, partial curve]",–
O=C(Nc1nnc(S(=O)(=O)N2CCCc3ccccc32)s1)c1ccc(Cl)cc1,"inconclusive: 12.6 µM [inhibitor, partial curve]",–
CCN(C(=O)CSc1nc(-c2ccc(C(C)C)cc2)no1)c1ccccc1,–,inactive: -13.9%
COc1ccc(OCc2cc(-c3ccc(Cl)cc3)no2)cc1,"inconclusive: 3.55 µM [inhibitor, full curve, poor fit]",–
O=C(C1CCCCC1)N(Cc1cccnc1)c1nc2ccc(Cl)cc2s1,"inconclusive: 44.7 µM [inhibitor, single point]",–
Cc1ccc(N2CCN(C(=O)c3cn(C)c4ccc(S(=O)(=O)N5CCC(C)CC5)cc4c3=O)CC2C)cc1 (configuration not stated),"inconclusive: 31.6 µM [inhibitor, single point]",–
COc1cc(N=c2ssnc2Cl)c(OC)cc1Cl,active: 10 µM,–
CN(C)S(=O)(=O)c1cccc(C(=O)Nc2ccccc2[N+](=O)[O-])c1,–,inactive: -16.7%
COc1ccc(S(=O)(=O)Nc2ccccc2-c2nnn(CC(=O)Nc3ccccc3OC)n2)cc1,–,inactive: 15.8%
Cc1c2cnn(-c3ccccc3)c(=O)c2c(C)n1CC(=O)Nc1ccccc1Br,–,inactive: -3.09%
CCCCn1c(SCC(=O)NCc2ccco2)nc2c(sc3ccccc32)c1=O,"inconclusive: 35.5 µM [inhibitor, single point]",–
CCCCNC(=O)CSc1nc2ccc(N3CCOCC3)cc2c(=O)n1CCc1ccccc1,"inconclusive: 28.2 µM [inhibitor, single point]",–
CCc1ccccc1NC(=O)Cn1c(=O)n(-c2ccccc2)c(=O)c2oc3ccccc3c21,–,inactive: 13.9%
CCOc1cc2c3c(c1)C(C)CC(C)(C)N3C(=O)C2=O (configuration not stated),"inconclusive: 39.8 µM [inhibitor, single point]",–
Cc1ccc(-n2c(-c3ccc(Br)cc3)nc3c(cnn3-c3ccccc3)c2=O)cc1,"inconclusive: 1.78 µM [inhibitor, full curve, poor fit]",–
COC(=O)C(NNc1ccccc1C)(NC(=O)c1ccc(F)cc1)C(F)(F)F (configuration not stated),"inconclusive: 25.1 µM [inhibitor, single point]",–
CC(=O)c1ccc(NC(=O)c2cnc(N3CCCC3)nc2C)cc1,"inconclusive: 10 µM [inhibitor, partial curve]",–
COc1ccc(NC(=O)Cn2c(=O)n(Cc3ccco3)c(=O)c3sc4ccccc4c32)cc1OC,–,inactive: -2.77%
CCOC(=O)c1c(/N=C/c2cccc([N+](=O)[O-])c2O)sc(C)c1C,"inconclusive: 5.01 µM [inhibitor, single point]",–
CCC(C)(C)n1nnnc1C(c1cc2cccc(C)c2[nH]c1=O)N1CCCC1 (configuration not stated),"inconclusive: 39.8 µM [inhibitor, single point]",–
COc1ccc(-n2nnc(-c3nc(-c4ccc5c(c4)OCO5)no3)c2C)cc1Cl,"inconclusive: 5.01 µM [inhibitor, full curve, poor fit]",–

SMILES,Potency,"activity, negative = inhibition"
CC(C)OC(=O)CSc1nc(N)c(C#N)cc1C#N,"inconclusive: 28.2 µM [inhibitor, partial curve, poor fit]",–
CCCCCn1c(SCCN2CCOCC2)nc2c1c(=O)[nH]c(=O)n2C,–,inactive: -7.56%
CCOC(=O)c1ccccc1OC(=O)CS(=O)c1ccccc1[N+](=O)[O-] (configuration not stated),"inconclusive: 25.1 µM [inhibitor, partial curve]",–
COc1ccc(NC(=O)CSc2nncn3c2cc2occc23)c(OC)c1,"inconclusive: 12.6 µM [inhibitor, partial curve, poor fit]",–
Nc1ccc2nc(SCc3cccc(F)c3)sc2c1,"inconclusive: 15.8 µM [inhibitor, partial curve]",–
Cc1cccc(NC(=O)C(=O)NCCc2c[nH]c3ccccc23)c1C,"inconclusive: 0.631 µM [inhibitor, full curve]",–
COc1ccc(N2C(=O)CS/C2=C\[N+](=O)[O-])cc1,"inconclusive: 20 µM [inhibitor, partial curve]",–
Cc1cccc(/C=C2\Oc3cc(OS(C)(=O)=O)ccc3C2=O)c1,"inconclusive: 8.91 µM [inhibitor, partial curve]",–
Cc1c(N(C)CS(=O)(=O)O)c(=O)n(-c2ccccc2)n1C,"inconclusive: 39.8 µM [inhibitor, single point]",–
CCn1c(SCC(=O)NCCc2ccccc2)nc2sc3c(c2c1=O)CCN(C)C3,"inconclusive: 14.1 µM [inhibitor, partial curve, poor fit]",–
COc1ccc(C(=O)NCC(=O)OCc2cc(=O)n3nc(C4CCCCC4)sc3n2)cc1,"inconclusive: 44.7 µM [inhibitor, single point]",–
Cn1c(CCc2nc3ccccc3[nH]2)nnc1SCC#N,–,inactive: -6.36%
CCCC(=O)Nc1nnc(C2CCCO2)s1 (configuration not stated),–,inactive: -2.77%
O=C(N/N=C/C=C/c1ccc([N+](=O)[O-])cc1)c1cccs1,"inconclusive: 1.58 µM [inhibitor, full curve]",–
O=C(N=c1nc2ccccn2s1)c1ccccc1,"inconclusive: 2.51 µM [inhibitor, partial curve, poor fit]",–
Cc1ccc(C(=O)NNC(=O)CCCN2C(=O)/C(=C/c3ccccc3Cl)SC2=S)cc1,"inconclusive: 3.16 µM [inhibitor, full curve]",–
N#CC1=C(N)NC(SCC(=O)Nc2ccccc2)=C(C#N)C12CCCC2,"inconclusive: 25.1 µM [inhibitor, partial curve, poor fit]",–
CC(C)(C)c1cc(C(c2cccnc2)N2CCN(CCO)CC2)cc(C(C)(C)C)c1O (configuration not stated),active: 20 µM,–
CCOC(=O)c1c(C)oc2nc(C)nc(NCCc3ccc(OCC)cc3)c12,"inconclusive: 14.1 µM [inhibitor, partial curve]",–
CC(=O)C1=NN(c2ccccc2)C(c2ccc3c(c2)OCO3)N1c1ccccc1 (configuration not stated),"inconclusive: 22.4 µM [inhibitor, single point]",–
Cc1c(Nc2c3c(c(C#N)c4nc5ccccc5n24)CCC3)c(=O)n(-c2ccccc2)n1C,"inconclusive: 3.55 µM [inhibitor, partial curve]",–
O=c1c2ccccc2sn1-c1ccc(S(=O)(=O)N2CCCC2)cc1,active: 11.2 µM,–
C/C(=N\NC(=O)C(N)=O)c1cccc([N+](=O)[O-])c1,"inconclusive: 10 µM [inhibitor, partial curve]",–

SMILES,Potency,"activity, negative = inhibition"
COc1ccc(C(=O)/C=C/Nc2cccc(O)c2)cc1,"inconclusive: 0.316 µM [inhibitor, full curve, poor fit]",–
COc1cc(C(=O)Nc2ccc(-c3nc4cc(C)c(C)cc4o3)cc2)cc(OC)c1OC,"inconclusive: 20 µM [activator, single point]",–
COc1ccc2c(c1)c(C(=O)N/N=C/c1ccc(O)c(O)c1)c(C)n2C,"inconclusive: 17.8 µM [inhibitor, partial curve]",–
C/C(=N/OC(=O)c1ccc(Cl)cc1Cl)c1oc(C)nc1C,"inconclusive: 10 µM [inhibitor, partial curve, poor fit]",–
CC(C)Oc1ccc(C(=O)N2CCC(c3nc4ccccc4s3)CC2)cc1,"inconclusive: 12.6 µM [inhibitor, partial curve]",–
O=C(NCc1cccc2ccccc12)[C@H]1C[C@@H]1[C@H](NP(=O)(c1ccccc1)c1ccccc1)c1ccccc1,"inconclusive: 1.41 µM [inhibitor, full curve, poor fit]",–
Clc1cccc(NCc2nnc(SCc3ccccc3Cl)o2)c1,"inconclusive: 20 µM [inhibitor, partial curve]",–
CCOCC(=O)Nc1nc2ccccc2s1,–,inactive: -11%
Cc1cc(C)nc(SCc2n[nH]c(=S)n2C)n1,–,inactive: 3.24%
O=C1CCCC2=C1Sc1ccccc1N2,"inconclusive: 15.8 µM [inhibitor, partial curve]",–
Cn1nnc2c[n+](CC(=O)c3ccc(Cl)cc3)cc(Br)c21,"inconclusive: 11.2 µM [inhibitor, partial curve]",–
Cc1nn(-c2ccccc2)c(-n2cccc2)c1C(=O)NCCCN1CCN(c2ccccc2F)CC1,–,inactive: -9.9%
COc1ccc(NC(=O)C(Cc2ccccc2)NS(=O)(=O)c2ccc3c(c2)oc(=O)n3C)c(OC)c1 (configuration not stated),–,inactive: 6.69%
Cc1cccc2nc(-c3ccc(Cl)s3)c(Nc3ccc4c(c3)OCCO4)n12,"inconclusive: 17.8 µM [inhibitor, partial curve]",–
COc1ccccc1CCNC(=O)c1csc2c1CCCC2,"inconclusive: 20 µM [inhibitor, single point]",–
CCc1nnc(N/N=C/c2c(Cl)cccc2Cl)n1N,"inconclusive: 35.5 µM [inhibitor, partial curve]",–
N#C/C(=C(/O)c1ccc(F)cc1)c1nc2ccccc2s1,"inconclusive: 15.8 µM [inhibitor, partial curve]",–
CCCn1c(-c2ccc(F)cc2)nc2c(NC(C)CN(C)C)nc(C)nc21 (configuration not stated),–,inactive: 1.98%
O=C(CSc1nccn1Cc1ccco1)Nc1ccc(OC(F)(F)F)cc1,–,inactive: -14.6%
COc1ccc(-c2nnc(SCc3cccc(C)c3)n2N)cc1,–,inactive: -16.3%
O=C(Nc1nnc(CSCc2ccc(F)cc2)s1)c1ccc([N+](=O)[O-])cc1,"inconclusive: 2.24 µM [inhibitor, partial curve]",–
